Source: a protein production outcome set (Wang et al. 2014)

Test: label from the status in PepcDB records
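Further: failed if final PepcDB status was selected cloned or expressed and not failed if soluble or beyond.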

Sequence	protein production
MGDRRFIDFQFQDSNSSLRPRLGNATANNTCIVDDSFKYNLNGAVYSVVFILGLITNSVSLFVFCFRMKMRSETAIFITNLAVSDLLFVCTLPFKIFYNFNRHWPFGDTLCKISGTAFLTNIYGSMLFLTCISVDRFLAIVYPFRSRTIRTRRNSAIVCAGVWILVLSGGISASLFSTTNVNNATTTCFEGFSKRVWKTYLSKITIFIEVVGFIIPLILNVSCSSVVLRTLRKPATLSQVGTNKKKVLKMITVHMAVFVVCFVPYNSVLFLYALVRSQAITNCFLERFAKIMYPITLCLATLNCCFDPFIYYFTLESFQKSFYINAHIRMESLFKTETPLTTKPSLPAIQEEVSDQTTNNGGELMLESTF	failed
MGPTLAVPTPYGCIGCKLPQPEYPPALIIFMFCAMVITIVVDLIGNSMVILAVTKNKKLRNSGNIFVVSLSVADMLVAIYPYPLMLHAMSIGGWDLSQLQCQMVGFITGLSVVGSIFNIVAIAINRYCYICHSLQYERIFSVRNTCIYLVITWIMTVLAVLPNMYIGTIEYDPRTYTCIFNYLNNPVFTVTIVCIHFVLPLLIVGFCYVRIWTKVLAARDPAGQNPDNQLAEVRNFLTMFVIFLLFAVCWCPINVLTVLVAVSPKEMAGKIPNWLYLAAYFIAYFNSCLNAVIYGLLNENFRREYWTIFHAMRHPIIFFSGLISDIREMQEARTLARARAHARDQAREQDRAHACPAVEETPMNVRNVPLPGDAAAGHPDRASGHPKPHSRSSSAYRKSASTHHKSVFSHSKAASGHLKPVSGHSKPASGHPKSATVYPKPASVHFKADSVHFKGDSVHFKPDSVHFKPASSNPKPITGHHVSAGSHSKSAFSAATSHPKPTTGHIKPATSHAEPTTADYPKPATTSHPKPTAADNPELSASHCPEIPAIAHPVSDDSDLPESASSPAAGPTKPAASQLESDTIADLPDPTVVTTSTNDYHDVVVVDVEDDPDEMAV	failed
MINLKCTFAVTAGLCSSLAYAQKQPHIILIMTDQQRGDAMGCMGNESLISPHLDALASEGTLFMNGYSSCPSSTPARAGLLTGQSPWHHGLLGYGKVAPKYNHEMPQMLKDAGYYTFGIGKMHWHPQRIKHGFEGTLLDESGRREDPNFISDYRLWFQIQAPGKNPDETGIGWNDHGAATYKLKESLHPTYWTGEMACQMIQNYDNGNQPLFLKVSFARPHSPYDPPQRFLDMYKDAQVPDPVIGEWCGKYAKELDPEKAAKDAPYGNFGNEYARHSKRYYYANITFIDEQIGRVLQTLKDKGMYDNSLIIFVSDHGDMMGDHYHWRKTYPYEGSTHIPYIIKWPAKAQVVPGKVDNPVELRDLLPTFFEIAGTSVPTDIDGRSLLSLAKGTETEWRKYIDLEHATCYSDDNYWCALTDGKIKYIWYFYTGEEQLFDLAKDPKELHNAVNDKKYKKLLTGMRAEMIRHLSERGEEFVKDGQLVVRKKTMLYGPNYPKEKRLEHHHHHH	not failed
MNEPQCFYNESIAFFYNRSGKHLATEWNTVSKLVMGLGITVCIFIMLANLLVMVAIYVNRRFHFPIYYLMANLAAADFFAGLAYFYLMFNTGPNTRRLTVSTWLLRQGLIDTSLTASVANLLAIAIERHITVFRMQLHTRMSNRRVVVVIVVIWTMAIVMGAIPSVGWNCICDIENCSNMAPLYSDSYLVFWAIFNLVTFVVMVVLYAHIFGYVRQRTMRMSRHSSGPRRNRDTMMSLLKTVVIVLGAFIICWTPGLVLLLLDVCCPQCDVLAYEKFFLLLAEFNSAMNPIIYSYRDKEMSATFRQILCCQRSENPTGPTEGSDRSASSLNHTILAGVHSNDHSVV	failed
MSKRSWWAGSRKPPREMLKLSGSDSSQSMNGLEVAPPGLITNFSLATAEQCGQETPLENMLFASFYLLDFILALVGNTLALWLFIRDHKSGTPANVFLMHLAVADLSCVLVLPTRLVYHFSGNHWPFGEIACRLTGFLFYLNMYASIYFLTCISADRFLAIVHPVKSLKLRRPLYAHLACAFLWVVVAVAMAPLLVSPQTVQTNHTVVCLQLYREKASHHALVSLAVAFTFPFITTVTCYLLIIRSLRQGLRVEKRLKTKAVRMIAIVLAIFLVCFVPYHVNRSVYVLHYRSHGASCATQRILALANRITSCLTSLNGALDPIMYFFVAEKFRHALCNLLCGKRLKGPPPSFEGKTNESSLSAKSEL	failed
